Test results as given in paper PMC8739753 (ACS catalysis, 2021).

Tests used:
TamI WT and mutants = details: range over TamI WT, L295V, and L101A_L295I
TamI H102V = TamI H102V (Streptomyces sp. 307-9, UniProt D3Y1J3, H102V); test: biochemical
TamI L101A_L295I [1] = molecular target: T1, TamI L101A_L295I (Streptomyces sp. 307-9, UniProt D3Y1J3, L101A/L295I); test: biochemical
TamI L101A_L295I [2] = molecular target: T1, TamI L101A_L295I; details: compound as substrate
P450 TamI L244A_L295V = P450 TamI L244A_L295V (Streptomyces sp. 307-9, UniProt D3Y1J3, L244A/L295V); test: Michaelis–Menten kinetics, TamI L244A_L295V; format: biochemical; details: TamI L244A_L295V vs TamI WT; compound as substrate
P450 TamI L101A_L295I = details: TamI L101A_L295I vs TamI WT; step 4 on substrate
TamI P450 L244A_L295V [3] = molecular target: T2, TamI P450 L244A_L295V (Streptomyces sp. 307-9, UniProt D3Y1J3, L244A/L295V); test: biochemical
TamI P450 L244A_L295V [4] = molecular target: T2, TamI P450 L244A_L295V; details: compound as substrate

| Structure (SMILES) | TTN (mol substrate consumed/mol P450) (TamI WT and mutants) | Kd (TamI H102V) [µM] | Kd (TamI L101A_L295I [1]) [µM] | TTN (mol substrate consumed/mol P450) (TamI L101A_L295I [2]) | increase in catalytic efficiency compared to the WT enzyme (P450 TamI L244A_L295V) [fold] | increase in efficiency compared to TamI WT (P450 TamI L101A_L295I) | Kd (TamI P450 L244A_L295V [3]) [µM] | TTN (mol substrate consumed/mol P450) (TamI P450 L244A_L295V [4]) |
| --- | --- | --- | --- | --- | --- | --- | --- | --- |
| CC1=CC[C@H]2O[C@]1(C)O[C@H]([C@H](C)/C=C(C)/C=C/C(O)=C1/C(=O)CNC1=O)[C@H]2C [compound 1, tirandamycin C] | 368–369 | 10.3 | 0.09 |  |  |  |  |  |
| CC(C=CC(O)=C1C(=O)CNC1=O)=CC(C)C1OC2(C)OC(C(O)C=C2C)C1C (stereo not shown) [compound 2, tirandamycin E] |  |  | 4.75 | 324 | 36 |  |  |  |
| CC(/C=C/C(O)=C1/C(=O)CNC1=O)=C\[C@@H](C)[C@H]1O[C@@]2(C)O[C@H](C(=O)[C@@H]3O[C@@]32C)[C@@H]1C [compound 4, Tirandamycin A] |  |  |  |  | 23 | eightfold | 7.09 | 167 |
